In all, about 33,000 sequences were measured (“E-score (-0.5 to 0.5)”: median about -0.016, highest 2% from about 0.31 on). Some of the results follow.
Biological target: Cst6 (UniProt P40535)
Test: PBM E-score (8-mer binding enrichment) (E-score (-0.5 to 0.5)); higher = stronger / more preferred TF binding; most listed sequences are background and not binding sites
Conditions: protein concentration: 200 nM; construct: GST-DNA-binding domain
Outline: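 Masliner-normalised scans of fluorescent anti-GST signal were the basis for scoring. That signal came from GST-tagged yeast transcription factors applied at about 100-200 nM to double-stranded universal all-10-mer Agilent arrays on fresh or once-stripped slides. Each ungapped eight-base word, pooled with its reverse complement, received an E-score from the Universal PBM Analysis Suite.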

| Sequence | PBM E-score |
| --- | --- |
| ATCTGAGC | -0.0846 |
| CTGAGATC | -0.0878 |
| AGAAGGAC | -0.272 |
| CGAGGCAG | 0.0332 |
| ATTTCAAC | 0.104 |
| TCATGCGA | 0.0384 |
| AAGTTGGG | -0.133 |
| TACCTCTA | -0.06 |
| CTCCGAGA | -0.162 |
| ACGACGGA | 0.0762 |
| CAGGGAGA | -0.227 |
| GGAAACTA | -0.122 |
| ATTTCGCG | 0.156 |
| AACTCTGC | -0.123 |
| AAAATGCT | 0.0838 |
| ATCAGTGA | 0.136 |
| GGAGTTAA | -0.00612 |
| CGATGTCC | -0.159 |
| CGTGGTCC | 0.00953 |
| CCTATGAC | 0.221 |
| AGAAGGTA | 0.153 |
| AGTTGAGC | -0.109 |
| CTGGCGAA | -0.114 |
| CCACAGGG | -0.337 |
| AAGTCGAG | -0.0841 |

| Sequence | PBM E-score |
| --- | --- |
| ACGGTCTA | -0.0035 |
| ACGTATTG | 0.238 |
| GCACGGAC | 0.0246 |
| TGCTTACA | -0.0377 |
| CGCGTCTA | 0.0834 |
| AGCAACAG | -0.0878 |
| GCTCCGGA | -0.15 |
| CACTGTAA | 0.123 |
| CTGACACA | 0.0411 |
| ATGTTCAG | -0.0979 |
| ACAAGAGT | 0.00565 |
| ATAAGAAG | 0.265 |
| GAGGGGGC | -0.345 |
| ATACGCCC | -0.169 |
| CATTACTA | 0.177 |
| AGGTTCTA | -0.0425 |
| ATCCACGA | -0.0398 |
| CAAGCAGC | -0.179 |
| CATATTGG | 0.0223 |
| CGATAGAA | 0.0254 |
| CTTGGCGC | -0.00157 |
| GAAATCAA | 0.147 |
| CAGTTCGC | -0.0109 |
| AATAAAGC | 0.156 |
| AGGATCGG | -0.275 |

| Sequence | PBM E-score |
| --- | --- |
| AGACCCGC | -0.0869 |
| GATCAGCA | -0.029 |
| TAAATCAA | 0.181 |
| AGACCCCA | -0.105 |
| ACCGGAGG | -0.266 |
| ATGAGACG | -0.0685 |
| TGAGCCCA | -0.238 |
| ACAGAGGA | -0.00047 |
| ACGGATCG | -0.0348 |
| TACGCTGA | 0.0731 |
| AGCACGGC | 0.198 |
| ACAGGAGT | 0.0555 |
| GAGTCCCC | -0.444 |
| ATCCAATC | 0.033 |
| ACTTAGAA | -0.073 |
| CAGCCTGA | 0.0626 |
| CCCATAAA | -0.0662 |
| ACTTTTAC | 0.218 |
| GTCAGAGA | 0.029 |
| TTATGGAA | 0.0709 |
| ATGCAAAC | 0.0481 |
| ATTGACGA | 0.249 |
| GTGGGCTA | -0.0963 |
| AGAAGTCG | -0.247 |
| CATGTCTA | -0.118 |

| Sequence | PBM E-score |
| --- | --- |
| ACATGCAT | 0.0333 |
| CCCACCGG | -0.266 |
| GTGGATGA | 0.0886 |
| CGCCTGTA | -0.197 |
| ATCCGGAG | 0.001 |
| AAACAATG | 0.212 |
| AATAAATG | 0.302 |
| AATCTTAA | 0.0728 |
| CGGCGAAA | 0.15 |
| CGGGCTGA | -0.197 |
| AGACTTAA | -0.0892 |
| AGAAATAA | 0.199 |
| AATGGTGA | 0.184 |
| GCCATAGA | -0.159 |
| GAACAGAC | 0.0339 |
| GTTGGGAA | -0.0904 |
| GGGATATA | -0.0165 |
| AGCCGGGC | -0.185 |
| CGCTCAAC | -0.0529 |
| ACATTCGA | -0.0086 |
| ATAATAAT | 0.238 |
| AGCAGGAT | 0.0101 |
| ACCCCCGC | -0.33 |
| GATGCTTA | -0.0146 |
| AGTCAACC | -0.219 |

| Sequence | PBM E-score |
| --- | --- |
| GGCTGCAC | -0.173 |
| GGCATTAA | 0.11 |
| AAGTATCT | 0.00244 |
| GCGCAGAA | 0.177 |
| CGTAGGAG | -0.0275 |
| ACTGGTCC | -0.251 |
| CACGTCAG | 0.449 |
| ATAACTAA | 0.174 |
| ATGTTTAC | 0.161 |
| AAACCTTG | 0.0686 |
| TCCATCAA | 0.135 |
| GGAGGTGA | 0.18 |
| AAAGTATT | 0.127 |
| CGGTGTAA | -0.0925 |
| CACGCGCC | 0.12 |
| GGTATAGA | -0.18 |
| GTGGGTAA | -0.135 |
| GACAGGCA | -0.115 |
| ACTGAAGT | -0.0347 |
| ATTCGATC | 0.153 |
| AGCCCCGA | -0.172 |
| ATCATAAG | 0.132 |
| TAGGCCAA | -0.149 |
| GAGCAGGC | -0.245 |
| GCTGGCAA | -0.106 |

| Sequence | PBM E-score |
| --- | --- |
| ATTAGTGC | 0.2 |
| TCAGGCGA | -0.0441 |
| CACAGCGG | 0.00487 |
| AATAGGGA | -0.312 |
| GAACAATA | 0.234 |
| ATGCCAAC | 0.0227 |
| CAACGATA | -0.0093 |
| AAATCTAG | -0.0771 |
| GCGACTGA | -0.145 |
| GTGTTAGA | -0.0843 |
| AGGAGTCG | -0.221 |
| CAGCACAG | 0.149 |
| AGATCCGC | 0.0272 |
| ATTATAAC | 0.0838 |
| CTGGGCCA | -0.406 |
| CCTGGATC | -0.334 |
| CTGCGCAG | -0.322 |
| ATCTTCTC | -0.0503 |
| CTCACGCA | 0.258 |
| CCATGCCC | -0.234 |
| ACCCGCAA | -0.202 |
| ACTTGTTA | 0.0761 |
| CGAACCTA | -0.165 |
| AGACTAAA | 0.0784 |
| CACGCCAG | -0.212 |

| Sequence | PBM E-score |
| --- | --- |
| ATCCGAGC | -0.23 |
| CCACGAAG | -0.152 |
| CTTTACCA | -0.0956 |
| CCGTGCCG | 0.205 |
| CGTACAAA | 0.175 |
| CCTGCCCG | -0.108 |
| AGAATGTG | 0.0949 |
| GTGAGATA | 0.129 |
| GGTGTTTA | 0.0743 |
| CCGAGAGG | -0.254 |
| GTTCGGGA | -0.0952 |
| GAGCAAGA | -0.0552 |
| CAGCCTCG | -0.0587 |
| ATTCCGTG | 0.121 |
| ACTATCTA | 0.0552 |
| CAGAAGAG | 0.0467 |
| CCGTCGCG | -0.22 |
| AAATTTGT | 0.137 |
| AGGAAGAT | -0.0159 |
| GAGAAGAC | 0.021 |
| ATGGAAGG | -0.065 |
| GATCCGTA | -0.0774 |

— the supplement of paper PMC3334620
